Assay results reported in PubChem BioAssay AID1508624 (National Center for Advancing Translational Sciences (NCATS), 2021).
In all, about 48,000 compounds went through this assay and about 120 (0.25%) were called active. Not shown: some 4% with an inconclusive outcome. Calls follow the shape of the dose curve; as a rule, active = well fitted activation curve with a large enough effect; inconclusive = small, poorly fitted or top-dose-only effect, or another doubt; inactive = no such curve, though single readings can be large or run the other way. The list shows a part of the results.

Test: Primary qHTS for Identification of Small Molecule Activators of Huntingtin-Antisense Promoter Activity; also: nearly all actives have a fitted effect of over 55% in size
Conditions: HEK293 HTT-AS promoter firefly luciferase reporter, 24 h; series mostly up to 57.5 µM; activity change, positive = activation: at the top concentration
In short: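 Luminescence was read after Dual-Glo reagent and a 10 min room-temperature incubation. Values were normalized to vehicle (0% activity) and zero RLU (-100% activity). Reporter HEK293 cells had been exposed to compounds (up to 57.5 uM final) for 24 h.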

Row | SMILES | activity change, positive = activation
1 | Cc1ccc(OCc2cc(=O)n3ccsc3n2)c(NC(=O)c2ccco2)c1 | inactive: -10.7%
2 | CCOC(=O)c1cc(-c2ccccc2)n(CCC(=O)NCCc2ccc(OC)c(OC)c2)c1C | inactive: -16.8%
3 | Cc1c(F)cc2c(=O)c(C(=O)O)cn3c2c1CCC3C (stereo not given) | inactive: -14.3%
4 | COc1ccc(-c2nc3cc(NC(=O)c4cc5ccccc5o4)ccc3o2)cc1 | inactive: 9.89%
5 | O=C(Nc1ccc2nc(SCC(=O)N3CCOCC3)sc2c1)c1ccc(Cl)cc1 | inactive: -33%
6 | O=C(c1ccccc1)N1CCCCC1CCN1CCCCC1 (stereo not given) | inactive: -10.1%
7 | CCN(Cc1ccccc1)C(=O)C(CC(C)C)NS(=O)(=O)c1ccc2c(c1)CCN2C(C)=O (stereo not given) | inactive: 0%
8 | Cc1cccc(N2CCN(C(=O)c3nn(C)c4c3CS(=O)(=O)c3ccccc3-4)CC2C)c1 (stereo not given) | inactive: -29.3%
9 | Cc1ccc(-n2c(=O)c3ccccc3n(CC(=O)Nc3cccc(C(F)(F)F)c3)c2=O)cc1 | inactive: -38.5%
10 | N#C/C(=C\c1ccc(Cl)cc1)c1nc(-c2cc3c(ccc4ccccc43)oc2=O)cs1 | inactive: -9.3%
11 | O=C(Cn1c(=O)n(-c2ccccc2)c(=O)c2sc3ccccc3c21)NC1CCCC1 | inactive: -5.11%
12 | Cc1ccc(C)c(Nc2nn3c(=O)c4ccc(C(=O)NCc5cccs5)cc4nc3s2)c1 | inactive: -36.7%
13 | COc1cccc(N2CCN(c3ncnc4onc(-c5ccc(Cl)cc5)c34)CC2)c1 | inactive: -29.8%
14 | CN(C1CCCCC1)S(=O)(=O)c1ccc2c(c1)c(=O)c(C(=O)NCc1ccc(Cl)cc1)cn2C | inactive: 28.9% [at 11.5 µM, percent change from vehicle, -100% = no light]
15 | O=C(CN1C(=O)CC(c2ccc(F)cc2)=Nc2ccccc21)NCc1ccccc1Cl | inactive: -31.4%
16 | CSc1ccc(CNC(=O)Cn2ccc3cc(S(=O)(=O)N4CCCC4)ccc32)cc1 | inactive: -32.6%
17 | COc1ccccc1CNC(=O)CS(=O)(=O)Cc1nc(-c2ccccc2C)oc1C | inactive: -24.1%
18 | CN(C)c1ccc(C(=O)NCc2ccc3c(c2)CCN3C(=O)c2ccccc2)cc1 | inactive: -15%
19 | CC(C)CCNC(=O)CSc1nc2ccccc2nc1Cc1ccc(Cl)cc1 | inactive: -6.39%
20 | CC1CCN(c2nc(-c3ccc(Br)cc3)nc3ccccc23)CC1 | inactive: -8.78%
21 | CN(C)c1ccc(CNC(=O)c2sc3ncccc3c2-n2cccc2)cc1 | inactive: -30.8%
22 | Cc1cc(C)cc(NC(=O)CCN2C(=O)c3ccccc3Sc3ncccc32)c1 | inactive: -27.4%
23 | COc1cc(Cl)c(NS(=O)(=O)c2ccc(-c3coc(C)n3)cc2)c(OC)c1 | inactive: -52.5%
24 | CC1CCCCN1CCCNC(=O)Cn1ncc2c3ccccc3n(Cc3ccccc3F)c2c1=O (stereo not given) | inactive: 3.18%
25 | Cc1ccc(-c2cc(C(F)(F)F)c(C#N)c(SCC(=O)Nc3ccccc3F)n2)cc1 | inactive: -20.7%
